# In PubChem BioAssay AID1745853 (National Center for Advancing Translational Sciences (NCATS), 2022):
# Some of the results follow. These are further read-outs of the screen, such as a control signal, another cell line or another target. No call is given for them.
# How the values were obtained:
# Assay in all cases: Primary Screen for Target Class Profiling of Small Molecule Inhibitors of Methyltransferases
# [1] = target: Guanidinoacetate N-methyltransferase (Homo sapiens) (UniProt Q14353); settings: purified enzyme, MTase-Glo SAH luminescence; measured here: GAMT inhibition; at 40 µM; stronger effect = lower value
# Summary of the method: (§1)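 Each enzyme was reacted with SAM and its substrate, with compounds tested once at 40 uM; SAH formed was read by MTase-Glo luminescence.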
# [2] = target: Nicotinamide N-methyltransferase (Homo sapiens) (UniProt P40261); settings: purified enzyme, MTase-Glo SAH luminescence; measured here: NNMT inhibition; at 40 µM; stronger effect = lower value
# Summary of the method: as §1
# [3] = target: Phenylethanolamine N-methyltransferase (Homo sapiens) (UniProt P11086); settings: purified enzyme, MTase-Glo SAH luminescence; measured here: PNMT inhibition; at 40 µM; stronger effect = lower value
# Summary of the method: as §1
# [4] = target: Glycine N-methyltransferase (Homo sapiens) (UniProt Q14749); settings: purified enzyme, MTase-Glo SAH luminescence; measured here: GNMT inhibition; at 40 µM; stronger effect = lower value
# Summary of the method: as §1
# [5] = target: Histamine N-methyltransferase (Homo sapiens) (UniProt P50135); settings: purified enzyme, MTase-Glo SAH luminescence; measured here: HNMT inhibition; at 40 µM; stronger effect = lower value
# Summary of the method: as §1
# On the % scale 0 is the no-effect control and ±100 the full control effect.
Compound,"activity change, negative = inhibition [1] [%]","activity change, negative = inhibition [2] [%]","activity change, negative = inhibition [3] [%]","activity change, negative = inhibition [4] [%]","activity change, negative = inhibition [5] [%]"
NC(=O)[C@@H](CCC(F)(F)F)N(Cc1ccc(-c2ncon2)cc1F)S(=O)(=O)c1ccc(Cl)cc1,3.5,-21.9,-5.6,,
COC[C@@H]1CN(C(=O)CC2=CCCCC2)C[C@H]1c1ccncc1,-12.4,-11.5,-9.44,-5.73,-3.12
CC1(C(=O)NC2CCCCCC2)Cn2c(nc3ccccc32)C(=O)N1Cc1cccs1 (stereo not given),1.33,-12.9,-1.26,-4.54,5.04
COc1ccccc1CN1C(=O)c2nc3ccccc3n2CC1(C)C(=O)NC1CCCCC1C (stereo not given),0,1,-0.389,2.03,2.73
O=C(Cn1c(=O)oc2ccccc21)N1CCCC(Cc2noc(-c3ccccc3)n2)C1 (stereo not given),-0.821,-13.2,-2.52,-3.01,-0.953
CCOc1ccc(CNC(=O)c2cc3n(n2)CC(C)(C(=O)NCc2ccc(F)cc2)N(C)C3=O)cc1 (stereo not given),-4.04,7.75,-1.53,-1.64,-11.6
CN(CC1(C)CCCO1)S(=O)(=O)c1ccc(Cl)c(S(N)(=O)=O)c1 (stereo not given),2.91,-11.3,-1.87,-0.191,3.73
C[C@@H](O)[C@H]1C(=O)N2C(C(=O)O)=C(SCCN=CN)C[C@H]12,13.4,0.634,9.41,-19.6,1.93
CCCN1CCN(CCCN2C(=O)c3cc4occc4n3CC2(C)C(=O)NC2CCCCC2)CC1 (stereo not given),1.55,9.74,3.84,6.12,4.47
COc1ccc(CNC(=O)c2ccc3c(=O)nc4c(-c5ccccc5F)n[nH]n4c3c2)cc1,0,4.08,-0.171,-15.4,4.52
C=Cc1ccc(Cn2nc3n(CCC)c(=O)c4ccc(C(=O)NC(C)C)cc4n3c2=O)cc1,0,-7.25,1.02,-3.25,1.18
C=Cc1ccc(CSc2nnc3n(CCC(C)C)c(=O)c4ccccc4n23)cc1,0,-2.84,3.56,0.418,9.05
CCc1cc2c(cc3n2CC(C)(C(=O)NC2CCCCC2)N(Cc2ccc(Cl)cc2)C3=O)s1 (stereo not given),6.01,-4.81,-3.98,-2.56,0.422
CN1C(=O)c2cc(C(=O)NC3CCCCCC3)nn2CC1(C)C(=O)NC1CCCCCC1 (stereo not given),0.252,2.2,1.02,-0.078,-4.91
COc1ccccc1CNC(=O)C1(C)Cn2c(cc3ccccc32)C(=O)N1CCC1=CCCCC1 (stereo not given),3.9,5.95,2.19,5.29,9.02
Cc1cc2c(cc3n2CC(C)(C(=O)NC2CCCCCCC2)N(Cc2ccco2)C3=O)o1 (stereo not given),-12.6,-32.1,-13.8,-7.06,-4.53
O=C1CN(Cc2c(F)cccc2Cl)S(=O)(=O)c2ccccc2N1Cc1cccc(F)c1,3.92,-6.84,-2.63,1.49,-1.17
COc1ccccc1CNC(=O)c1ncn2c1C(=O)N(C1CC1)C(C)(C(=O)NCc1ccc(C)cc1)C2 (stereo not given),4.36,6.34,2.88,4.82,5.62
O=C(NCCc1csc(-c2cnccn2)n1)C1CC2(CCNCC2)CN1 (stereo not given),1.17,-8.78,-5.36,-2.21,-4.46
CC(C(=O)NCCc1ccc(Cl)cc1)n1ccc2cc(S(=O)(=O)N3CCCC3)ccc21 (stereo not given),2.14,0.891,0.739,1.71,-0.712
CC(C)(O)c1cc2nc(-c3cnc(N)nc3)nc(N3CCOCC3)c2s1,4.02,-18.6,-2.22,1.9,3.84
O=C(CCn1ccc2cc(S(=O)(=O)N3CCCC3)ccc21)NCc1cccs1,0.392,0,1.3,-0.059,3.73
CC(=O)N1CCC2(CC1)CC(c1cccc(C(F)(F)F)c1)=NO2,2.84,-2.6,-1.82,0.225,2.8
CNC1(C)C2CCC(C2)C1(C)C (stereo not given),2.28,-10.5,-3.19,-0.188,3.3
CN(C)CCC(CSc1ccccc1)Nc1ccc(S(=O)(=O)NC(=O)c2ccc(N3CCN(Cc4ccccc4-c4ccc(Cl)cc4)CC3)cc2)cc1[N+](=O)[O-] (stereo not given),,,,-7.76,-13.2
CS(=O)c1ccc(-c2nc(-c3ccc(F)cc3)c(-c3ccncc3)[nH]2)cc1 (stereo not given),-8.8,-37.5,-23.3,-31.7,-33.5
Cc1c(Cn2c(C)nc3c(C(=O)O)cc(N4CCOCC4)cc32)cccc1C(F)(F)F,8.81,-15,9.89,5.58,13.5
CCN1C(=O)c2cc(C(=O)NCc3ccccc3OC)nn2CC1(C)C(=O)NC1CCCC1 (stereo not given),0,5.63,4.17,3.81,-4.8
O=C(NCc1ccc(Oc2ccccc2)cc1)c1nc(-c2cc(Br)c(O)c(Br)c2)no1,-48,-85.2,-27.6,-7.43,-61.9
